Test results published in PubChem BioAssay AID2675 (National Center for Advancing Translational Sciences (NCATS), 2010).
About 100 (0.036%) of roughly 280,000 compounds were called active. Inconclusive results, whose numbers are uncertain, are shown with a selection of clear calls. Calls follow the shape of the dose curve; as a rule, active = well fitted inhibition curve with a large enough effect in the signal ratio, with a control signal flat (not every such curve was filed as active); inconclusive = small, poorly fitted or top-dose-only effect, or effect the other way, or a change in a side signal; inactive = no such curve, though single readings can be large or run the other way; the % refers to the signal ratio. Potencies of inconclusive entries are doubtful fits and often do not repeat. “Side channel” marks fits to a control or component signal instead of the main read-out.

molecular target: Muscleblind-like protein 1 (Homo sapiens) (UniProt Q9NR56); assay: qHTS Assay for Inhibitors of MBNL1-poly(CUG) RNA binding; conditions: TR-FRET MBNL1-His/biotin-(CUG)12 binding, 665/545 ratio; activity change, negative = inhibition: at 57.5 µM (top of the series)
Outline: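 TR-FRET readout: Ex 340 nm, 665/545 nm emission ratio, normalized to buffer-only (basal) and MBNL1-(CUG)12 controls. Complex of MBNL1-His with Biotin-(CUG)12, compounds 92 nM–58 uM, incubated 60 min at room temperature.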
% is scaled to controls: 0 for no effect and ±100 for the full control effect; potency is read from the fitted curve at half-maximal effect; tags tell the direction and shape of the fitted curve or compound fluorescence and quenching.

Sequence of UniProt Q9NR56 (Q9NR56 whole entry, looked up): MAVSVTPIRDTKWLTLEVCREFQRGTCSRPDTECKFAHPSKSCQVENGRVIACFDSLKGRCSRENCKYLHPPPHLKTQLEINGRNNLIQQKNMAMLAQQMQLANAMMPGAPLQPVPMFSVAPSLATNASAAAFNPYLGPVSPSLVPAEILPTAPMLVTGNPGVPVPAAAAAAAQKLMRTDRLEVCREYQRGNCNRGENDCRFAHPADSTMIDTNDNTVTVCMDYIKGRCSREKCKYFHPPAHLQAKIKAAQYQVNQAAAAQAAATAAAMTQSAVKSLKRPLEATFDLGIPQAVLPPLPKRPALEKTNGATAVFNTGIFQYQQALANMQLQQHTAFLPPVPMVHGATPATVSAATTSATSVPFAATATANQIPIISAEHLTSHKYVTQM

Compound | Potency | activity change, negative = inhibition
CC(C)N1CC(C(=O)Nc2cccc([N+](=O)[O-])c2)CC1=O (configuration not stated) | inconclusive: 15.8 µM [quencher, side channel, partial curve] | 
O=C(O)CCN1C(=O)c2ccc(NC(=O)CCc3ccccc3)cc2C1=O | inconclusive: 25.1 µM [quencher, side channel, partial curve] | 
COc1ccc(C2C3=C(CCCC3=O)Nc3nc(C(F)(F)F)nn32)cc1OC (configuration not stated) | inactive | 
O=C(COc1ccc([N+](=O)[O-])cc1)N(Cc1ccccc1)Cc1ccccc1 | inactive | 
COC(=O)CN(c1cc(Cl)ccc1OC)S(=O)(=O)c1ccc(C)cc1 | inactive | 
O=C(N/N=C/c1cc2c(cc1[N+](=O)[O-])OCO2)c1cccnc1 | inconclusive: 12.6 µM [quencher, partial curve] | 
Cc1oc(-c2ccccc2)nc1CSc1nc2c(c(=O)[nH]1)CCC2 | inconclusive: 126 µM [inhibitor, partial curve] | 
N#Cc1c(Cn2cncn2)nc(=O)n(-c2ccc(Cl)cc2)c1N | inconclusive: 31.6 µM [fluorescent, side channel, single point] | 
O=C(OCc1cc([N+](=O)[O-])cc2c1OCOC2)c1ccccn1 | inconclusive: 20 µM [quencher, partial curve] | 
CCn1c(C)nc2cc(C(=O)N/N=C/c3ccc(O)cc3)ccc21 | inconclusive: 11.2 µM [quencher, side channel, partial curve] | 
O=C(O)c1cc(C(F)(F)F)nc2c(C(F)(F)F)cccc12 | inconclusive: 79.4 µM [inhibitor, partial curve] | 
O=c1cc(N2CCN(c3ccc(F)cc3)CC2)[nH]c(=O)n1Cc1ccc(F)cc1 | inconclusive: 0.891 µM [quencher, side channel, full curve, poor fit] | 
O=C(Nc1cccc(S(=O)(=O)N2CCCCC2)c1)c1ccc([N+](=O)[O-])o1 | inconclusive: 7.08 µM [quencher, side channel, partial curve] | 
COc1nccnc1NS(=O)(=O)c1ccc(NC(=S)NC(=O)c2cccc(F)c2)cc1 | inactive | 
C=C(C)C(=O)OC1(C(F)(F)F)Oc2cc(C)ccc2NC1=O (configuration not stated) | inactive | 
Cc1ccnc(NC(=O)Nc2ccc(Br)cc2Cl)c1 | inactive | 
COC(=O)C1=C(C)N(c2cccc(Cl)c2)C(=O)C1 | inactive | 
O=C(O)c1ccccc1-c1ccccc1C(=O)Nc1cccc(-c2nc3ccccc3o2)c1 | inactive | 
COc1cc(/C=N/Nc2nncc3ccccc23)cc(OC)c1OC | inconclusive: 22.4 µM [quencher, single point] | 
CN(CC(=O)Nc1ccccn1)S(=O)(=O)c1ccc(Cl)cc1 | inconclusive: 50.1 µM [inhibitor, partial curve] | 
CC1CCCC(C)N1CCCNC(=O)C(=O)Nc1ccc2nc3n(c(=O)c2c1)CCCCC3 (configuration not stated) | inactive | 

Compound | Potency | activity change, negative = inhibition
CCOc1cccc2cc(C(N)=O)c(=N)oc12 | inconclusive: 17.8 µM [quencher, side channel, partial curve] | 
NC(=O)CC(NC(=O)c1cccc(Br)c1)c1ccc(NCCN2CCOCC2)c([N+](=O)[O-])c1 (configuration not stated) | inconclusive: 14.1 µM [quencher, side channel, partial curve] | 
Cc1cccc(C)c1NC(=O)Cn1c(CN2CCCCC2)nc2ccccc2c1=O | inconclusive: 39.8 µM [quencher, side channel, single point] | 
Cc1ccc(/C=c2/sc3nnc(-c4ccccc4Cl)n3c2=O)o1 | inactive | 
Cc1nc2c(cc1C(=O)N/N=C/c1ccc([N+](=O)[O-])cc1)c(=O)n(C)c(=O)n2C | inconclusive: 17.8 µM [quencher, side channel, partial curve, poor fit] | 
CC(C)n1cc(/C=C2/SC(=O)N(CC(=O)N3CCCC3)C2=O)c2ccccc21 | inconclusive: 3.16 µM [quencher, side channel, full curve] | 
O=C(NC(Cc1ccccc1)C(=O)O)/C(=C/c1cccc([N+](=O)[O-])c1)NC(=O)c1ccco1 (configuration not stated) | inconclusive: 12.6 µM [quencher, partial curve] | 
CC1CCCCC1NC(=S)Nc1ccc(Cl)cc1Cl (configuration not stated) | inactive | 
O=C(CCl)N1CCN2C(=O)c3ccccc3C12c1ccc(Cl)cc1 (configuration not stated) | inactive | 
Cc1ccc(C(C)C)c(OCC(=O)N/N=C/c2ccc(S(=O)(=O)O)o2)c1 | inactive | 
Cc1cc(C)n(C(=O)c2ccc([N+](=O)[O-])cc2N)n1 | inconclusive: 3.16 µM [quencher, side channel, full curve, poor fit] | 
C=CCn1cccc(C(=O)Nc2ccc(OCC)cc2)c1=O | inactive | 
C=CCN1C(=O)S/C(=C/c2ccsc2)C1=O | inconclusive: 7.94 µM [quencher, side channel, partial curve] | 
COc1cccc(-c2nc(CS(=O)(=O)CC(=O)NCc3ccccc3)c(C)o2)c1 |  | inconclusive: -3.81% [phenotype inactive]
Cc1c(NC(=S)N/N=C/c2ccc([N+](=O)[O-])cc2O)c(=O)n(-c2ccccc2)n1C | inconclusive: 22.4 µM [quencher, side channel, single point] | 
COC(=O)CCN(C(=O)c1cc([N+](=O)[O-])cc([N+](=O)[O-])c1)c1ccccn1 | inconclusive: 12.6 µM [quencher, side channel, partial curve] | 
O=C(Nc1cccc(Cl)c1)Nc1sccc1-c1nc2ccccc2s1 | inactive | 
COc1ccc(-c2cc(-c3nnc(COC(=O)CC4CCCC4)o3)c3ccccc3n2)cc1OC | inconclusive: 25.1 µM [quencher, side channel, single point] | 
CCOc1ccc(CN2CCN(CCCc3ccccc3)CC2CCO)cc1 (configuration not stated) | inactive | 
O=[N+]([O-])c1cccc(S(=O)(=O)NCCOc2cccc3cccnc23)c1 | inconclusive: 14.1 µM [quencher, partial curve] | 
C/C(Cn1cnc([N+](=O)[O-])n1)=N\NC(=O)c1ccc(O)cc1O | inconclusive: 22.4 µM [quencher, side channel, partial curve] | 
